Measurements taken from PubChem BioAssay AID1458 (National Center for Advancing Translational Sciences (NCATS), 2008).
The whole screen tested about 210,000 compounds, of which about 5,900 (2.8%) were called active. The shares of active, inactive and inconclusive entries below differ from those in the screen. Calls follow the shape of the dose curve; as a rule, active = well fitted activation curve with a large enough effect; inconclusive = small, poorly fitted or top-dose-only effect; inactive = no such curve, though single readings can be large or run the other way. A potency beside an inconclusive call is a rough fit, not a confirmed value.

test: qHTS Assay for Enhancers of SMN2 Splice Variant Expression; conditions: HEK293 SMN2-luciferase splicing reporter, luminescence, 30-36 h; activity change, positive = activation: at 46.1 µM (top of the series); also: nearly all actives have a fitted effect of over 55% in size; as to activity change, positive = activation: % of control where 0% means no effect
Method in brief: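 HEK293 cells carry an SMN2 minigene-luciferase reporter in which exon 7 inclusion puts luciferase in frame. Cells were seeded at 2000 cells/well, attached for 10-12 hours, then exposed to compounds for 30-36 hours at 37C before ONE-Glo luminescence.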
Potency is read from the fitted curve at half-maximal effect; tags tell the direction and shape of the fitted curve.

| Structure (SMILES) | Potency | activity change, positive = activation |
| --- | --- | --- |
| CN(C(=O)c1cccc(C#N)c1)c1nnc(-c2ccccn2)s1 | inconclusive: 35.5 µM [activator, single point] |  |
| C/C(=N/OCC(=O)Nc1ccc(C)cc1C)c1cccs1 | inconclusive: 3.98 µM [activator, partial curve, poor fit] |  |
| CCS(=O)(=O)n1nc(-c2ccc(OC)cc2)nc1SC | inconclusive: 5.01 µM [activator, full curve, poor fit] |  |
| Cc1ccc2nc(N/C(=N/S(=O)(=O)c3ccc(F)cc3)c3ccccc3)sc2c1 | inconclusive: 12.6 µM [activator, partial curve] |  |
| COc1ccc2nc(NC(=O)CSc3nc(SC)ns3)sc2c1 | inconclusive: 14.1 µM [activator, partial curve] |  |
| Cc1cc(/C=C2/C(=N)N3C(=NC2=O)SN=C3S(C)(=O)=O)c(C)n1-c1ccc(F)cc1 | inconclusive: 22.4 µM [activator, partial curve, poor fit] |  |
| COc1ccc(C(=O)NCc2nnc(SCC(=O)Nc3nnc(C)s3)o2)cc1 | inconclusive: 35.5 µM [activator, single point] |  |
| Cc1ccc(C(C(=O)NC2CCCCC2)N(C(=O)c2csnn2)C2CC2)o1 (stereo not given) | inconclusive: 0.1 µM [activator, full curve] |  |
| COc1ccc(NC(=O)Cn2c(=O)n(-c3ccccc3)c(=O)c3c4c(sc32)CCCC4)cc1 |  | inactive: -1.46% |
| COC(=O)C(C(=O)Nc1cc(C)on1)C1CCCCCC1 (stereo not given) | inconclusive: 35.5 µM [activator, single point] |  |
| CCOC(=O)c1[nH]c(C)c(CCC(=O)OC)c1C | inconclusive: 0.224 µM [activator, full curve, poor fit] |  |
| O=C(Nc1ccccc1)Nc1ccccn1 | active: 14.1 µM |  |
| CSc1ccccc1NC(=O)COc1ccccc1Cl | inconclusive: 1.26 µM [activator, partial curve] |  |
| Cc1occc1C(=O)n1cnc2ccccc21 | inconclusive: 2.51 µM [activator, partial curve, poor fit] |  |
| O=C(Nc1nnc(C2CC2)s1)c1cc2c(s1)CCCCCC2 | inconclusive: 7.94 µM [activator, partial curve] |  |
| CCN(CC)S(=O)(=O)c1ccc(N2CCCC2)c(NS(=O)(=O)c2ccc(OC)cc2)c1 | inconclusive: 1.12 µM [activator, full curve, poor fit] |  |
| CCC1=[N+](CC(=O)c2ccc(C)cc2)CCn2c(C)ccc21 | inconclusive: 14.1 µM [activator, single point] |  |
| Cc1ccc(CN(C(=O)CNC(=O)c2cccs2)C(C(=O)NCC2CCCO2)c2ccccc2)cc1 (stereo not given) | inconclusive: 14.1 µM [activator, partial curve, poor fit] |  |
| CCc1ccc(-c2ccc(C(=O)C(F)(F)F)[nH]2)cc1 | inconclusive: 0.0562 µM [activator, full curve, poor fit] |  |
| O=C(OCn1nnc2ccccc2c1=O)c1ccc(N2CCOCC2)c([N+](=O)[O-])c1 |  | inactive: -0.198% |
| C=CCNC(=O)c1ccc(-c2cccc([N+](=O)[O-])c2)o1 | active: 22.4 µM |  |
| Fc1ccc(-c2nnc(CSc3nnc4ccccn34)o2)cc1 | inconclusive: 12.6 µM [activator, single point] |  |
| Nc1nc(-c2ccc3c(c2)CCC(=O)N3)cs1 | inconclusive: 14.1 µM [activator, partial curve] |  |
| O=C(NCc1ccccc1Br)c1ccc2nc(N3CCCCC3)sc2c1 |  | inactive: 8.58% |
| Cc1ccc2[nH]c(=O)c(N3CCOCC3)c(-c3ccccc3)c2c1 | inconclusive: 0.0089 µM [activator, full curve, poor fit] |  |

| Structure (SMILES) | Potency | activity change, positive = activation |
| --- | --- | --- |
| COc1c(OC(C)=O)ccc(/C=C/c2ccc3ccccc3n2)c1[N+](=O)[O-] | active: 22.4 µM |  |
| CCOC(=O)NC(=O)CSc1nnnn1-c1ccccc1 | inconclusive: 0.224 µM [activator, partial curve, poor fit] |  |
| COc1ccc(S(=O)(=O)NCCC(=O)NCc2ccc(F)cc2)cc1 |  | inactive: 8.47% |
| c1ccc(C2C3=C(Nc4ncnn42)c2ccccc2CCC3)cc1 (stereo not given) | inconclusive: 35.5 µM [activator, single point] |  |
| COc1ccc(NC2=CC(=O)N(C)C2=O)cc1 | active: 11.2 µM |  |
| Cc1nn(-c2ccccc2)c(/N=C/c2ccc(O)cc2)c1-c1ccccc1 | active: 17.8 µM |  |
| C=CCNS(=O)(=O)c1ccc(OCC(=O)OCC)cc1 | inconclusive: 2 µM [activator, partial curve, poor fit] |  |
| Cc1ccc(Nc2nc(N)nc(CSc3nncn3C)n2)cc1 | active: 17.8 µM |  |
| CC1=NN(c2ccc(C(=O)O)cc2)C(=O)/C1=C\c1ccc(OC(=O)c2cccs2)cc1 |  | inactive: 7.52% |
| O=C(/C=C/c1ccc(Cl)cc1Cl)c1nc2ccccc2[nH]1 |  | inactive: -28.8% |
| O=[N+]([O-])c1ccc2nc(-c3ccc(Cl)cc3)[nH]c2c1 | active: 3.16 µM |  |
| C(=N/Nc1nnc2c(n1)[nH]c1ccccc12)/c1cccnc1 | inconclusive: 3.55 µM [activator, partial curve, poor fit] |  |
| O=c1c2c3c(sc2nc2sc(CN4CCOCC4)cn12)CCCC3 | inconclusive: 10 µM [activator, partial curve] |  |
| Cc1cc(C(=O)Cn2nc(C(=O)O)c3ccccc3c2=O)c(C)n1CC(F)(F)F |  | inactive: 4.87% |
| CNC(=O)COC(=O)c1cccnc1SC |  | inactive: -6.86% |
| CCN(CC)C(=O)c1c(Cl)nc(C)c([N+](=O)[O-])c1C |  | inactive: 14.8% |
| CCCOC(=O)c1ccc(NC(=O)c2cc(OC)c(OC)c(OC)c2Br)cc1 |  | inactive: -19.5% |
| Clc1ccc2nc(-c3ccc(Br)s3)cn2c1 | active: 0.708 µM |  |
| c1coc(-c2nnc(SCc3cn4ccccc4n3)o2)c1 |  | inactive: -1.16% |
| CCCCS(=O)(=O)Nc1ccc(C(=O)NCC2CCCO2)cc1 (stereo not given) | inconclusive: 1.12 µM [activator, full curve, poor fit] |  |
| Cc1cccc(N2CCN(C(=S)Nc3ccc4nc(N5CCN(C)CC5)cc(C)c4c3)CC2C)c1 (stereo not given) | inconclusive: 35.5 µM [activator, single point] |  |
| CCOC(=O)CNC(=O)CSc1nnc(NC(=O)c2ccccc2Cl)s1 | inconclusive: 12.6 µM [activator, partial curve] |  |
| Cc1ccc2nc(SCC(=O)N(CC(C)C)c3c(N)n(CC(C)C)c(=O)[nH]c3=O)[nH]c2c1 | inconclusive: 15.8 µM [activator, single point] |  |
| CN(C)S(=O)(=O)c1cccc(C(=O)c2nccn2C)c1 | inconclusive: 31.6 µM [activator, single point] |  |
| CC(=O)Nc1cccc(/C(C)=N/NC(=O)c2cccs2)c1 | inconclusive: 35.5 µM [activator, single point] |  |

| Structure (SMILES) | Potency | activity change, positive = activation |
| --- | --- | --- |
| COc1ccc(NC(=O)c2nc[nH]c2C(=O)Nc2ccccc2C)cc1 | inconclusive: 0.562 µM [activator, single point] |  |
| CCCOc1ccc(-c2nnn(CC(=O)OCC)n2)cc1 |  | inactive: -15.4% |
| CCC(=O)/C=C1/Sc2ccccc2N1CC |  | inactive: -4.76% |
| S=C1NCCNC(=S)NCCOCCN1 | inconclusive: 35.5 µM [activator, single point] |  |
| COC(=O)/C(=C/Nc1ccccc1)[N+](=O)[O-] | inconclusive: 0.158 µM [activator, full curve, poor fit] |  |
| CC(/C=C/c1ccc(O)cc1)=N/O | inconclusive: 35.5 µM [activator, single point] |  |
| NCc1nc2cccnc2n1Cc1ccccc1Cl |  | inactive: -8.45% |
| O=C(NCc1ccco1)c1ccc2c(c1)N(Cc1ccccc1)C(=O)c1ccccc1S2(=O)=O |  | inactive: -1.37% |
| O=C(CCc1nc2cccnc2n1Cc1ccccc1)N1CCOCC1 |  | inactive: 2.3% |
| CCCOC(=O)Nc1ccc(N2CCCCC2)cc1 | active: 14.1 µM |  |
| Cc1ccc(C(=O)NC(=S)NCC2CCCO2)cc1Br (stereo not given) | active: 20 µM |  |
| Cc1nnc(Nc2ccc(C(=O)NCCO)cc2)c2ccccc12 |  | inactive: -3.23% |
| Cc1ccc(C)n1CCN1CCN(C(=O)CSc2nc3ccccc3nc2N2CCOCC2)CC1 | inconclusive: 35.5 µM [activator, single point] |  |
| COc1ccc(CCNC(=O)c2ccc(Nc3nc4ccccc4n4nnnc34)cc2)cc1OC |  | inactive: 5.1% |
| CC(C)c1ccc(NC(=O)c2cc3sc(Cl)cc3n2C)cc1 |  | inactive: -10.6% |
| S=C(NCC1CCCO1)Nc1ccc(Cl)cc1 (stereo not given) | inconclusive: 5.62 µM [activator, partial curve, poor fit] |  |
| COc1ccc(NC(=O)C(CCS(C)(=O)=O)N2C(=O)c3ccccc3C2=O)cc1 (stereo not given) |  | inactive: -0.552% |
| COc1cccc(Cn2c(=O)c(-c3cccs3)nc3cnc(Nc4cccc(OC)c4)nc32)c1 |  | inactive: 0.532% |
| COc1ccc(CCC(=O)NCCc2nc3ccccc3[nH]2)cc1 |  | inactive: -11.7% |
| O=C(CSc1nc2ccccc2o1)Nc1nc(-c2ccccc2)cs1 | inconclusive: 10 µM [activator, partial curve] |  |
| S=C(Nc1ccc(Cl)cc1)c1nc2ccccc2s1 | inconclusive: 14.1 µM [activator, single point] |  |
| C/C(=N/N=C1/NC(=O)CC(C(=O)Nc2ccccc2)S1)c1cccs1 (stereo not given) | inconclusive: 0.0224 µM [activator, partial curve, poor fit] |  |
| O=S(=O)(c1ccc(NC(=S)NCc2ccco2)cc1)N1CCCC1 | inconclusive: 5.01 µM [activator, partial curve] |  |
| CN(C)S(=O)(=O)c1nc(Cl)c2[nH]cnc2n1 |  | inactive: -1.07% [at 9.22 µM] |
| Cc1cc(C)c(C#N)c(Oc2ccccc2)n1 | inconclusive: 0.141 µM [activator, full curve, poor fit] |  |
